{
  "source": "PubChem BioAssay AID445",
  "about": "(National Center for Advancing Translational Sciences (NCATS), 2006)",
  "note": "Out of some 110,000 compounds screened, about 40 (0.04%) were called active. The shares of active, inactive and inconclusive entries below differ from those in the screen. Calls follow the shape of the dose curve; as a rule, active = well fitted curve in the direction sought with a large enough effect in the signal ratio (not every such curve was filed as active); inconclusive = small, poorly fitted or top-dose-only effect, or a change in a side signal; inactive = flat fitted curve, though single readings scatter; the % refers to the signal ratio. Where the call is inconclusive, the potency comes from a doubtful curve fit. Potency is read from the fitted curve at half-maximal effect.",
  "data": [
    {"assay": "IkB Signaling;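 as to IkBa stabilization activation: 0% = basal untreated cells and 100% = reference inhibitor full response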", "details": "ABC-DLBCL IkBa-CBG/CBR dual luciferase ratio (green luciferase fused to IkBa over red control in OCI-Ly3 lymphoma cells), 4 h; IkBa stabilization activation: at 57.1 µM (top of the series), scaled: untreated 0%, proteasome inhibitor 100% unless noted", "procedure,_shortened": "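Luminescence ratio of IκBα-fused green versus native red beetle luciferase in OCI-Ly3 cells, 4 h post-doxycycline with compound; red signal alone, scaled from basal (0%) to zero light (-100%), flagged nonspecific or cytotoxic effects.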", "values": [
      {"smiles": "CCCc1cc(-c2[nH]ncc2-c2ccc(C(=O)OCC)o2)c(O)cc1O", "IkBa stabilization activation": "inconclusive: 2.68% [signal inhibitor]"},
      {"smiles": "COc1ccc(-c2csc(Cc3nnc(N4CCOCC4)n3-c3ccccc3)n2)cc1", "IkBa stabilization activation": "inactive"},
      {"smiles": "COc1ccccc1C(=O)Nc1cccc(C(=O)OCc2cc(=O)n3cc(C)sc3n2)c1", "IkBa stabilization activation": "inconclusive: 0.805% [signal inhibitor]"},
      {"smiles": "COc1ccc(Cc2nc(-c3cccs3)no2)cc1OC", "IkBa stabilization activation": "inactive"},
      {"smiles": "O=C(CCn1cnc2ccccc2c1=O)NCc1ccccc1Cl", "IkBa stabilization activation": "inconclusive: 1.46% [signal inhibitor]"},
      {"smiles": "O=C(OCc1cc2ccccc2[nH]c1=O)c1ccccc1", "IkBa stabilization activation": "inconclusive: 13.6% [signal inhibitor]"},
      {"smiles": "COc1ccc(-c2nc(C)c(CCNS(=O)(=O)c3cc(Cl)ccc3Cl)s2)cc1", "IkBa stabilization activation": "inconclusive: 2.99% [signal inhibitor]"},
      {"smiles": "Cn1c(=O)c2c(nc(NCCCN3CCOCC3)n2Cc2ccc(Cl)cc2)n(C)c1=O", "IkBa stabilization activation": "inactive"},
      {"smiles": "COC(=O)CN1C(=O)CSc2ccc(S(=O)(=O)Nc3cc(C)ccc3C)cc21", "IkBa stabilization activation": "inconclusive: -0.435% [signal inhibitor]"},
      {"smiles": "Cc1c(C(=O)Nc2cccc(C(F)(F)F)c2)oc2ccc3c(c12)C(=O)CC(C)(C)O3", "IkBa stabilization activation": "inactive"},
      {"smiles": "Cc1nc2cccnc2n1-c1cccc(C(=O)N2CCN(c3cccc(Cl)c3)CC2)c1", "IkBa stabilization activation": "inconclusive: -0.0781% [signal inhibitor]"},
      {"smiles": "N#Cc1nc(-c2ccc(OCc3ccccc3)cc2)oc1NCCCN1CCOCC1", "IkBa stabilization activation": "inconclusive: 3.73% [signal inhibitor]"},
      {"smiles": "Cc1cc(C)c(NC(=O)Cn2nc(-c3ccncc3)ccc2=O)c(C)c1", "IkBa stabilization activation": "inconclusive: 1.59% [signal inhibitor]"},
      {"smiles": "O=C(CN1C(=O)C(c2ccc(F)cc2)=NC12CCCCCC2)Nc1ccccc1Cl", "IkBa stabilization activation": "inconclusive: 3.49% [signal inhibitor]"},
      {"smiles": "Cc1cc(Nc2nc3ccccc3[nH]c2=O)n(-c2ccccc2)n1", "Potency": "inconclusive: 25.1 µM [rising, partial curve]"},
      {"smiles": "COc1ccc(-c2ccc3c(N)c(C(=O)Nc4ccc(C(F)(F)F)cc4)sc3n2)cc1OC", "IkBa stabilization activation": "inconclusive: 9.03% [signal inhibitor]"},
      {"smiles": "CCN(C(=O)Cn1nnc2sc3c(c2c1=O)CCC(C(C)(C)C)C3)c1cccc(C)c1", "note": "(centres undefined)", "IkBa stabilization activation": "inconclusive: 1.23% [signal inhibitor]"},
      {"smiles": "O=C(c1ccc(Cn2c(=O)[nH]c3ccccc3c2=O)cc1)N1CCN(c2ccc(Cl)cc2)CC1", "IkBa stabilization activation": "inconclusive: 5.26% [signal inhibitor]"},
      {"smiles": "O=C(Nc1nc2c(s1)CCCC2)C1COc2ccccc2O1", "note": "(centres undefined)", "Potency": "inconclusive: 10 µM [signal inhibitor, partial curve]"}
    ]}
  ]
}
